Experimental data reported in PubChem BioAssay AID504832 (National Center for Advancing Translational Sciences (NCATS), 2011).
Hit rate of the full screen: of about 310,000 compounds, about 18,000 (5.8%) were called active. Inconclusive results, whose numbers are uncertain, are shown with a selection of clear calls. Calls come from the whole dose curve; as a rule, active = well fitted inhibition curve with a large enough effect; inconclusive = small, poorly fitted or top-dose-only effect, or another doubt; inactive = no such curve, though single readings can be large or run the other way. No potency is given beside an inconclusive call; the fits are too rough.

Test: Primary qHTS for delayed death inhibitors of the malarial parasite plastid, 48 hour incubation
Conditions: P. falciparum luciferase growth in erythrocytes; series mostly up to 28.7 µM
Outline: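 Parasite viability was followed by luminescence of a genomically integrated firefly luciferase. Cultures held 0.1% parasitemia at 2% hematocrit (final), incubated under 5% CO2 at 37 C.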
Potency is the fitted concentration of half-maximal effect; tags give direction and shape of the fitted curve.

| Compound | Potency |
| --- | --- |
| COC(=O)c1ccc(C)c(NC(=O)c2nn(C)c(=O)c3ccccc23)c1 | inconclusive [inhibitor, single point] |
| COc1ccccc1NC(=O)N(Cc1ccc2c(c1)OCO2)Cc1nc2ccccc2c(=O)[nH]1 | inconclusive [inhibitor, single point] |
| CC(=O)Nc1ccc(S(=O)(=O)NC2CCCCCC2)cc1 | inactive |
| COc1ccc2oc(=O)cc(-c3cc4ccccc4o3)c2c1 | inconclusive [inhibitor, full curve, poor fit] |
| O=C(Nc1ccc(N2CCCC2)c(Cl)c1)c1ccc(Br)o1 | active: 4.65 µM |
| CCCCN(CCCC)CC(O)c1cc(Cl)cc2c1-c1ccc(Cl)cc1/C2=C/c1ccc(Cl)cc1 (stereo not given) | active: 0.0151 µM |
| COc1cc2c(c(OC)c1OC)-c1ccc(NC(=O)c3ccc(F)cc3)c(=O)cc1[C@@H](NC(C)=O)CC2 | inconclusive [inhibitor, partial curve, poor fit] |
| CCOC(=O)c1c(NC(=O)CN2C(=O)NC3(CCCCC3)C2=O)sc(C)c1-c1ccc(C)cc1 | active: 14.7 µM |
| COc1ccccc1C(=O)NCCC(=O)N1CCCCCCC1 | inconclusive [inhibitor, single point] |
| NC(=O)N/N=C/c1c(Sc2nnnn2-c2ccccc2)nc2ccccn2c1=O | active: 4.65 µM |
| Cc1ccc(-n2nc3c4c(cccc4c2=O)-c2ccccc2-3)cc1 | inconclusive [inhibitor, partial curve, poor fit] |
| O=C(CCn1nc(-c2ccc(Cl)cc2)ccc1=O)N1CCN(c2ccc(F)cc2)CC1 | inconclusive [inhibitor, single point] |
| CCOC(=O)COc1cc(N)c(Cl)cc1Cl | inactive |
| O=C(CN1CCN(c2ccc(O)cc2)CC1)Nc1cc(S(=O)(=O)N2CCOCC2)ccc1Cl | inconclusive [inhibitor, single point] |
| COc1ccccc1N1CCN(C2CCCN(C(=O)CCc3ccccn3)C2)CC1 (stereo not given) | inactive |
| O=C(CCc1nc(-c2ccccc2)no1)NC1CCCCCC1 | inactive |
| COc1ccc(OC)c(N2C(=O)c3cccnc3C2=O)c1 | inactive |
| Cc1cccc(NC(=O)c2cc(N3C(=O)CCC3=O)ccc2Cl)n1 | inconclusive [inhibitor, full curve, poor fit] |
| O=C(c1ccc(OC2CCN(Cc3ccccc3OC(F)F)CC2)cc1)N1CCCC1 | inconclusive [inhibitor, full curve, poor fit] |
| Cc1ccccc1-n1c(SCc2c(C)noc2C)nnc1-c1c[nH]c2ccccc12 | inconclusive [inhibitor, partial curve, poor fit] |
| CCOC(=O)c1cccc(NS(=O)(=O)c2c(C)[nH]c(=O)[nH]c2=O)c1 | inconclusive [inhibitor, full curve, poor fit] |
| CCc1cc(=O)oc2cc(C)c(CN3CCCC(C)C3)c(O)c12 (stereo not given) | active: 2.08 µM |

| Compound | Potency |
| --- | --- |
| Cn1nc(C(F)(F)F)c(/C=N/OCc2c(Cl)cccc2Cl)c1Cl | inactive |
| CCc1ccccc1NC(=O)CC(=O)Nc1ccccc1CC | inconclusive [inhibitor, single point] |
| C=CCn1cc(C(=O)NCC2CCCO2)c(=O)c2cc(S(=O)(=O)N3CCCCCC3)ccc21 (stereo not given) | active: 11.7 µM |
| O=C(O)c1ccc(N/N=C/c2ccc3c(c2)OCO3)cc1 | inconclusive [inhibitor, full curve, poor fit] |
| COc1ccc(N=C2SCC(=O)N2Cc2ccccc2)cc1 | inactive |
| O=C(COc1ccc(F)cc1)N(Cc1cccc(Br)c1)C1CCS(=O)(=O)C1 (stereo not given) | inconclusive [inhibitor, single point] |
| Cc1cccc(C(=O)Oc2ccccc2/C=N/Nc2ccc([N+](=O)[O-])cc2)c1 | inconclusive [inhibitor, single point] |
| COc1ccc(CCNCc2cc(C)n(-c3ccc(OC)cc3)c2C)cc1 | inconclusive [inhibitor, partial curve, poor fit] |
| O=C(Nc1cc(Br)c(O)c(Br)c1)c1cccc(NC(=O)c2ccco2)c1 | inconclusive [inhibitor, partial curve] |
| O=C(c1ccccc1)c1ccccc1N/C=C/c1nnnn1-c1ccccc1 | inconclusive [inhibitor, partial curve, poor fit] |
| c1ccc(N2CCN(c3ncnc4scc(-c5cccs5)c34)CC2)cc1 | inconclusive [inhibitor, single point] |
| Cc1cc(O)cc(C)c1Cl | active: 15.1 µM |
| CC1CCN(C(=O)c2[nH]cnc2C(=O)NCc2ccc(CNC(=O)OC(C)(C)C)cc2)CC1 | inactive |
| CCOC(=O)/C=c1\s/c(=C\c2ccc(C#N)cc2)c(=O)n1CC(=O)Nc1cccc(C)c1C | inconclusive [inhibitor, single point] |
| COc1ccc(C2(C(=O)NCc3ccco3)CCCC2)cc1OC | inconclusive [inhibitor, single point] |
| CCCCN(CCCC)CCCNC(=O)C12CN(Cc3ccccc3)CC1C(c1cccc([N+](=O)[O-])c1)=NO2 (stereo not given) | inconclusive [inhibitor, single point] |
| CCCCn1c(N)c(N(CC(C)C)C(=O)C2CCN(S(=O)(=O)c3ccc(OCC)cc3)CC2)c(=O)[nH]c1=O | inconclusive [inhibitor, single point] |
| COc1cc(C(=O)Nc2cc(C(F)(F)F)ccc2N2CCOCC2)ccc1O | inconclusive [inhibitor, single point] |
| Cc1nc2c(sc(=S)n2Cc2ccco2)c(=O)n1CC(=O)Nc1ccc(F)cc1 | inconclusive [inhibitor, single point] |
| Cc1nc2cc(NS(=O)(=O)c3cccc4cccnc34)ccc2s1 | inconclusive [inhibitor, single point] |
| CC(C)(C)N(Cc1ccccc1)C(=O)CN1C(=O)NC2(CCCCCC2)C1=O | inconclusive [inhibitor, single point] |
| COc1ccccc1N(CC(=O)NC1CCCC1)C(=O)c1oc(C(C)(C)C)cc1C | inconclusive [inhibitor, partial curve] |

| Compound | Potency |
| --- | --- |
| CC(C)(C)c1ccc(SCC(N)=O)cc1 | inactive |
| O=C(COC(=O)Cc1ccc(Cl)c(Cl)c1)Nc1ccc2[nH]c(=O)[nH]c2c1 | inactive |
| O=C(N/N=C/c1ccc([N+](=O)[O-])o1)C(=O)Nc1ccc(C(=O)O)cc1 | active: 2.33 µM |
| O=S(=O)(NC1=NCCC1)c1ccc(F)cc1F | inactive |
| O=C(O)CSc1nnc(-c2ccco2)o1 | inactive |
| CC(c1nc2scc(-c3ccccc3)c2c(=O)[nH]1)N1CCN(CC(=O)NC2CC2)CC1 (stereo not given) | inconclusive [inhibitor, partial curve] |
| Cc1ccccc1CSCC(=O)Nc1ccccc1-c1ccccc1 | inconclusive [inhibitor, partial curve] |
| Cc1ccc(S(=O)(=O)Nc2nc3ccc(S(C)(=O)=O)cc3s2)cc1 | inactive |
| O=C(CC(NC(=O)C(F)(F)F)c1ccccc1)Nc1nnc(CCc2ccccc2)s1 (stereo not given) | inconclusive [inhibitor, single point] |
| Cc1nn2c(Nc3ccc(F)cc3)c3c(nc2c1-c1ccccc1)CCC3 | inconclusive [inhibitor, partial curve, poor fit] |
| CCOc1ccc(-c2nnc3ccc(SCC(=O)Nc4nc5ccc(C)cc5s4)nn23)cc1 | inconclusive [inhibitor, single point] |
| CC1Cc2ccccc2N1C(=O)CSc1nnc2c(n1)[nH]c1ccc(F)cc12 (stereo not given) | active: 1.47 µM |
| COc1ccc(-c2csc(N(CCCN(C)C)C(=O)c3ccc(F)cc3)n2)cc1 | inconclusive [inhibitor, full curve, poor fit] |
| CCc1cc(C(=O)Nc2cc(S(=O)(=O)N(CC)CC)ccc2N2CCN(C)CC2)sc1C | inconclusive [inhibitor, partial curve] |
| COc1ccccc1NC(=O)COC(=O)C1CCN(/C=C/C(=O)C(F)(F)F)CC1 | inactive |
| CCC(=O)O[C@@H]1CC(=O)O[C@H](C)CC=CC=C[C@@H](O)[C@H](C)C[C@H](CC=O)[C@H](O[C@H]2O[C@H](C)[C@@H](O[C@H]3C[C@@](C)(O)[C@@H](OC(=O)CC)[C@H](C)O3)[C@H](N(C)C)[C@H]2O)[C@H]1OC | inconclusive [inhibitor, partial curve] |
| COc1ccc2nc3oc(C(=O)N4CCC(C(N)=O)CC4)cc3cc2c1 | active: 11.7 µM |
| Fc1nc(F)c(F)c(NCCCNc2c(F)c(F)nc(F)c2F)c1F | inconclusive [inhibitor, single point] |
| O=C(NC1=C(NC2CCS(=O)(=O)C2)C(=O)c2ccccc2C1=O)c1ccccc1 (stereo not given) | active: 1.65 µM |
| CC(C#N)(NC(=O)CN1CCN(S(=O)(=O)c2ccccc2Cl)CC1)C1CC1 (stereo not given) | inconclusive [inhibitor, single point] |
| CCC(C)C(=O)N[C@@H](c1ccccc1)[C@@H](O)C(=O)O[C@H]1C[C@@]2(O)[C@@H](OC(=O)c3ccccc3)C3[C@](C)(C(=O)[C@H](OC(C)=O)C(=C1C)C2(C)C)[C@@H](O)C[C@H]1OC[C@@]31OC(C)=O (stereo not given in full) | active: 0.465 µM |
